# Test results as given in PubChem BioAssay (Tox21).
# Several values for one entry are separate records, joined by “and”; a condition that tells them apart may be missing. Equal values may be shown once. Inconclusive means that the source gave no clear call. Such entries were picked first, then a sample of the others. For some of these results: A potency beside an inconclusive call is a rough fit, not a confirmed value. Some structures have more than one record in an assay (separate samples or runs), and their calls can disagree. Activity calls are given as the source filed them. Unless noted, the call rests on the fitted dose curve; in most records, active means well fitted curve in the direction sought with a large enough effect in the repeat runs; inconclusive means weak or mixed curves; inactive means no such curve, though single readings can be large; an effect the other way counts as inactive or inconclusive.
# How the values were obtained:
# [1] = qHTS assay for small molecule agonists of the p53 signaling pathway (AID 651631; calls by dose curve; further: nearly all actives have a fitted effect of over 15% in size); conditions: HCT-116 p53RE-bla reporter, beta-lactamase FRET ratio, 16 h; activation: at 73.3 µM (top of the series) unless noted
# How it was run: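 p53RE-bla HCT-116 cells; compounds 16 h, 37 °C; LiveBLAzer B/G FRET substrate 2 h RT; fluorescence intensity read-out, qHTS format.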
# [2] = qHTS assay for small molecule agonists of the p53 signaling pathway - cell viability (AID 651633; calls by dose curve; further: nearly all actives have a fitted effect of over 30% in size)
# How it was run: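 Viability counter-read: CellTiter-Glo luminescence (30 min, room temperature) in the same p53RE-bla plates. These plates had been exposed to compounds for 16 h at 37 C.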
# [3] = qHTS assay for small molecule disruptors of the mitochondrial membrane potential - cell viability (AID 720634; calls by dose curve; further: nearly all actives have a fitted effect of over 20% in size)
# How it was run: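 HepG2 cells, 2,000 per well, attached overnight, then treated 1 hr at 37 C, 5% CO2. Viability read as ATP by CellTiter-Glo luminescence after 30 min at room temperature. Read in the same wells as the m-MPI membrane-potential dye assay.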
# [4] = qHTS assay for small molecule disruptors of the mitochondrial membrane potential (AID 720635); conditions: HepG2 mitochondrial membrane potential, Mito-MPS dye ratio; ratio activity, negative = MMP loss: at 83.2 µM (top of the series) unless noted
# How it was run: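 Mitochondrial membrane potential tracked with Mito-MPS dye, red aggregates (ex 540/em 590 nm) against green monomers (ex 490/em 535 nm). Compound treatment 1 hr at 37C, dye 30 min in HepG2.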
# [5] = molecular target: Glucocorticoid receptor (Homo sapiens) (UniProt P04150); test: qHTS assay to identify small molecule agonists of the glucocorticoid receptor (GR) signaling pathway (AID 720691; active means well fitted activation curve with a large enough effect in the signal ratio in the repeat runs, not every such curve was filed as active; inconclusive means weak or mixed curves, or effect the other way; inactive means no such curve, though single readings can be large or run the other way; the % refers to the signal ratio; on activation: on the % scale 0 is the no-effect control and ±100 the full control effect); conditions: GR-bla HeLa, beta-lactamase reporter ratio, 18 h; activation: at 62.4 µM (top of the series) unless noted
# How it was run: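 GR-bla HeLa cells carrying a GRE-driven beta-lactamase reporter, exposed to compounds for 18 h at 37 C. Reporter activation read as fluorescence after 2 h with LiveBLAzer B/G FRET substrate at room temperature.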
# [6] = qHTS assay to identify small molecule antagonists of the glucocorticoid receptor (GR) signaling pathway - cell viability counter screen (AID 720693); conditions: GR-bla HeLa viability, CellTiter-Glo luminescence, 18 h, with 5 nM dexamethasone present; viability change, negative = cytotoxic: at 58.5 µM (top of the series) unless noted; further: nearly all actives have a fitted effect of over 55% in size
# [7] = qHTS assay to identify small molecule antagonists of the androgen receptor (AR) signaling pathway - cell viability counter screen (AID 743033; further: nearly all actives have a fitted effect of over 45% in size; on activity change, negative = cytotoxicity: on the % scale 0 is the no-effect control and ±100 the full control effect); conditions: AR-bla HEK293 viability, CellTiter-Glo luminescence, 16 h; activity change, negative = cytotoxicity: at 58.5 µM (top of the series)
# [8] = qHTS assay for identifying genotoxic compounds that show differential cytotoxicity against isogenic chicken DT40 cell lines with known DNA damage response pathways - Rad54/Ku70 mutant cell line (AID 743015); conditions: DT40 Rad54/Ku70 mutant viability, CellTiter-Glo, 40 h; activity change, negative = cytotoxicity: at 66.8 µM (top of the series); further: nearly all actives have a fitted effect of over 60% in size; on activity change, negative = cytotoxicity: on the % scale 0 is the no-effect control and ±100 the full control effect
# [9] = molecular target: Glucocorticoid receptor (Homo sapiens) (UniProt P04150); test: qHTS assay to identify small molecule antagonists of the glucocorticoid receptor (GR) signaling pathway (AID 720692; active means well fitted inhibition curve with a large enough effect in the signal ratio in the repeat runs, not every such curve was filed as active; inconclusive means weak or mixed curves, or effect the other way; inactive means no such curve, though single readings can be large or run the other way; the % refers to the signal ratio; on activity change, negative = inhibition: on the % scale 0 is the no-effect control and ±100 the full control effect); conditions: GR-bla HeLa, beta-lactamase FRET ratio, dexamethasone-stimulated, 18 h; activity change, negative = inhibition: at 58.5 µM (top of the series) unless noted
# How it was run: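 GR-bla HeLa cells carrying a GRE-driven beta-lactamase reporter received compound after 4 h plating, then dexamethasone (5 nM final). After 18 h at 37C, the FRET substrate was loaded for 2 h at room temperature and fluorescence read.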
# [10] = qHTS assay for identifying genotoxic compounds that show differential cytotoxicity against isogenic chicken DT40 cell lines with known DNA damage response pathways - wild type cell line (AID 743012); conditions: DT40 wild type chicken cells viability, CellTiter-Glo, 40 h; activity change, negative = cytotoxicity: at 68.4 µM (top of the series) unless noted; further: nearly all actives have a fitted effect of over 60% in size
# How it was run: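 Wild-type DT40 cells (300/well) exposed to compounds for 40 hours at 37 C/5% CO2. Viability read by CellTiter-Glo luminescence after 30 min at room temperature.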
# [11] = qHTS assay for identifying genotoxic compounds that show differential cytotoxicity against isogenic chicken DT40 cell lines with known DNA damage response pathways - Rev3 mutant cell line (AID 743014); conditions: chicken DT40 Rev3-/- viability, CellTiter-Glo, 40 h; activity, negative = cytotoxicity: at 68.4 µM (top of the series); further: nearly all actives have a fitted effect of over 55% in size
# [12] = qHTS assay for small molecules that induce genotoxicity in human embryonic kidney cells expressing luciferase-tagged ATAD5 - cell viability (AID 651634; calls by dose curve; further: nearly all actives have a fitted effect of over 25% in size)
# How it was run: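 HEK293T cells carrying luciferase-tagged ATAD5, 2,000 cells/well, exposed to compound for 15.5 hr at 37C. Viability read as live-cell protease activity by CellTiter-Fluor fluorescence after 30 min at 37C.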
# [13] = qHTS assay to test for compound auto fluorescence at 460 nm (blue) in HEK293 cells (AID 720678)
# How it was run: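 Auto fluorescence in the blue band was quantified as triamterene equivalency. HEK293 cells were seeded at 2,000/well, dosed after a 4-5 hr attachment, and kept overnight at 37C before the 405/460 nm reading.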
# Potency means the concentration at half of the fitted maximal effect; tags describe the fitted curve by direction and shape or compound fluorescence and quenching.
# Chain of UniProt P04150 (P04150 whole entry, looked up): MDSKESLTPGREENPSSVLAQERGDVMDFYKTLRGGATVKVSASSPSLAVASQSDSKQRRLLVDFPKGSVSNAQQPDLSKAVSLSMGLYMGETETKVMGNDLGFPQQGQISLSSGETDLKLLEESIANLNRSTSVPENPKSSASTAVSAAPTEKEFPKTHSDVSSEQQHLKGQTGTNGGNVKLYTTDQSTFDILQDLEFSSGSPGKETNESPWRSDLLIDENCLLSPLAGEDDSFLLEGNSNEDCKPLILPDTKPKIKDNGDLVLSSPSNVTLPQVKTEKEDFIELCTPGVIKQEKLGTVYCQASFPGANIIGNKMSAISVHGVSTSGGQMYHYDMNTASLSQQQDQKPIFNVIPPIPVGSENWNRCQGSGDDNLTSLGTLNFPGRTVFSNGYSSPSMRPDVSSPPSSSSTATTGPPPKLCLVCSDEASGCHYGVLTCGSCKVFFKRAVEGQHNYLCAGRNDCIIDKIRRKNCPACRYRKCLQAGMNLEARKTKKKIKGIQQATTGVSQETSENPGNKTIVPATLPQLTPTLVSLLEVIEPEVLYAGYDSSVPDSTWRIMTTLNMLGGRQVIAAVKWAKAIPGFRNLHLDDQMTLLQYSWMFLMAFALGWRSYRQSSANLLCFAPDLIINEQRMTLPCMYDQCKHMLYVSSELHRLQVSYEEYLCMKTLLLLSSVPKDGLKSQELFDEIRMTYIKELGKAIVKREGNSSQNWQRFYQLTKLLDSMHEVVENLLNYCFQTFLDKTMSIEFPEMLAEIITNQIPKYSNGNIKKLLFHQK
smiles,measurement,setting,value
CCC(C)c1cc([N+](=O)[O-])cc([N+](=O)[O-])c1O (stereo not drawn),Potency,[1],active: 0.864 µM
same,Potency,[2],"inconclusive: 24.3 µM [cytotoxic, partial curve, poor fit]"
same,Potency,[3],active: 1.22 µM
same,Potency,[4],active: 0.344 µM
same,Potency,[5],inactive
same,Potency,[6],"inconclusive: 3.89 µM [cytotoxic, full curve]"
same,Potency,[7],active: 19.5 µM
CCOP(=S)(OCC)OC(Cl)C(Cl)(Cl)Cl (stereo not drawn),Potency,[1],inconclusive: 68.6 µM [cytotoxic]
same,Potency,[2],"inconclusive: 68.6 µM [cytotoxic, single point]"
same,Potency,[3],"inconclusive: 68.6 µM [cytotoxic, partial curve, poor fit]"
same,Potency,[4],active: 61.1 µM
same,Potency,[8],inactive
CC1(C)C(/C=C(\Cl)C(F)(F)F)C1C(=O)OC(C#N)c1cccc(Oc2ccccc2)c1 (stereo not drawn),Potency,[1],"inconclusive: 55.4 µM [falling, single point]"
same,Potency,[2],"inconclusive: 69.7 µM [cytotoxic, single point]"
same,Potency,[3],"inconclusive: 27.8 µM [cytotoxic, partial curve, poor fit]"
same,Potency,[4],active: 34.9 µM
same,activation,[5],inconclusive: 0.858% [phenotype inactive] [at 79.2 µM]
same,"activity change, negative = inhibition",[9],inconclusive: -3.15% [at 78.9 µM]
O=C1C2CC=CCC2C(=O)N1SC(Cl)(Cl)Cl (stereo not drawn),Potency,[1],active: 5.96 µM
same,Potency,[2],"inconclusive: 8.41 µM [cytotoxic, partial curve]"
same,Potency,[3],active: 29.8 µM and active: 60.1 µM
same,Potency,[4],active: 8.41 µM and active: 43.1 µM and active: 8.49 µM
same,Potency,[7],"inconclusive: 3.79 µM [cytotoxic, full curve] and inactive and active: 3.41 µM"
ClC1=C(Cl)C2(Cl)C3C(Cl)C(Cl)CC3C1(Cl)C2(Cl)Cl (stereo not drawn),Potency,[1],"inconclusive: 54.3 µM [cytotoxic] and inconclusive: 68.6 µM [cytotoxic, single point]"
same,Potency,[2],active: 54.3 µM and active: 61.1 µM
same,Potency,[3],"inconclusive: 68.6 µM [cytotoxic, partial curve, poor fit]"
same,Potency,[4],active: 7.67 µM and active: 13.7 µM
same,Potency,[9],"inconclusive: 9.74 µM [inhibitor, partial curve, poor fit] and inconclusive: 61.6 µM [cytotoxic, single point]"
same,Potency,[6],"inconclusive: 54.9 µM [cytotoxic, single point]"
same,Potency,[10],active: 21.7 µM
same,Potency,[11],"inconclusive: 6.09 µM [cytotoxic, partial curve, poor fit] and active: 30.6 µM"
same,Potency,[8],"inconclusive: 27.2 µM [cytotoxic, single point]"
same,Potency,[7],"inconclusive: 54.8 µM [cytotoxic, single point] and active: 49 µM"
O=c1ssc(Cl)c1Cl,Potency,[1],inconclusive: 68.6 µM [cytotoxic]
same,Potency,[2],active: 54.5 µM
same,Potency,[12],active: 61.1 µM
same,Potency,[3],active: 61.1 µM
same,Potency,[6],"inconclusive: 61.6 µM [cytotoxic, single point]"
same,Potency,[11],active: 2.17 µM
same,Potency,[7],active: 43.6 µM
CCCCCCCCn1sccc1=O,Potency,[1],active: 12.2 µM and active: 25.5 µM
same,Potency,[2],"inconclusive: 24.4 µM [cytotoxic, single point] and inconclusive: 28.6 µM [cytotoxic]"
same,Potency,[3],"inconclusive: 68.7 µM [cytotoxic, single point]"
same,Potency,[4],active: 30.7 µM and active: 64.1 µM
same,Potency,[13],"inconclusive: 35.5 µM [fluorescent, partial curve, poor fit]"
same,Potency,[5],"inconclusive: 61.8 µM [cytotoxic, single point]"
same,Potency,[9],active: 49.1 µM and active: 36.3 µM
same,Potency,[7],active: 4.37 µM and active: 20.4 µM
COc1ccc(C(c2ccc(OC)cc2)C(Cl)(Cl)Cl)cc1,Potency,[1],active: 30.6 µM
same,Potency,[2],"inconclusive: 30.6 µM [cytotoxic, partial curve]"
same,Potency,[3],"inconclusive: 68.6 µM [cytotoxic, partial curve, poor fit]"
same,Potency,[4],active: 13.7 µM
same,Potency,[13],"inconclusive: 12.6 µM [fluorescent, single point]"
same,Potency,[9],active: 34.5 µM
same,Potency,[6],"inconclusive: 34.5 µM [cytotoxic, partial curve]"
same,Potency,[10],active: 19.2 µM
same,Potency,[11],active: 44.4 µM
same,Potency,[7],"inconclusive: 34.5 µM [cytotoxic, partial curve, poor fit]"
